Assay results from PubChem BioAssay AID624296 (National Center for Advancing Translational Sciences (NCATS), 2012).
The campaign covered roughly 350,000 compounds. About 9,900 (2.8%) were called active. Inconclusive means that the source gave no clear call. Such entries were picked first, then a sample of the others. Calls follow the shape of the dose curve; as a rule, active = well fitted activation curve with a large enough effect; inconclusive = small, poorly fitted or top-dose-only effect; inactive = no such curve, though single readings can be large or run the other way. No potency is given beside an inconclusive call; the fits are too rough.

Assay: A quantitative high throughput screen for small molecules that induce DNA re-replication in MCF 10a normal breast cells. Also: nearly all actives have a fitted effect of over 50% in size. As to activity, positive = re-replication: % of control where 0% means no effect.
Conditions: MCF 10A DNA re-replication, Hoechst nuclear intensity, 48 h; activity, positive = re-replication: at 46.1 µM (top of the series)
Potency is read from the fitted curve at half-maximal effect; tags tell the direction and shape of the fitted curve.

| SMILES | Potency | activity, positive = re-replication |
| --- | --- | --- |
| C[C@]12CC[C@H](O)CC1=CCC1C2CC[C@@]2(C)C1CC[C@@H]2NC(=O)[C@@H](N)CO (stereo partly specified) | inconclusive [activator, single point] | – |
| CCn1c2ccccc2c2cc(C#N)c(N)nc21 | inconclusive [activator, single point] | – |
| O=C(Nc1ccc2c(c1)CCC2)c1cc(=O)[nH]c2ccccc12 | – | inactive: -11.5% |
| CN(CC(=O)N1CCN(c2cccc(Cl)c2)CC1)S(=O)(=O)c1cccs1 | inconclusive [activator, single point] | – |
| CC12CN(C(=O)c3cccc([N+](=O)[O-])c3)C3(C#N)CC1CCC23C (stereo unspecified) | – | inactive: -3.13% |
| CCOc1ccc(Cl)cc1S(=O)(=O)N1CCC(C(=O)NC2CC2)CC1 | – | inactive: 0.068% |
| COc1ccc(N2C(=O)CSC2c2cccs2)cc1 (stereo unspecified) | inconclusive [activator, single point] | – |
| NC(=O)c1ccc(-c2ncc(-c3ccccc3)o2)cc1 | inconclusive [activator, full curve] | – |
| c1ccc(C(NCCNC(c2ccccc2)c2ccccc2)c2ccccc2)cc1 | inconclusive [activator, single point] | – |
| CC1(C)c2ssc(=S)c2-c2ccccc2N1C(=O)c1ccco1 | – | inactive: -0.891% |
| CCOC(=O)c1oc2cc(OC(C)=O)ccc2c(=O)c1-c1ccc(OC)c(OC)c1 | – | inactive: -2.26% |
| O=[N+]([O-])c1ccc(NC(=S)NCCc2ccc(Cl)cc2)cc1 | inconclusive [activator, partial curve] | – |
| COc1cc(/C=C2\SC(=O)NC2=O)ccc1Oc1ccc([N+](=O)[O-])cc1[N+](=O)[O-] | active: 20.6 µM | – |
| COCCCN(C(=S)Nc1cc(Cl)cc(Cl)c1)C(C)c1ccncc1 (stereo unspecified) | inconclusive [activator, single point] | – |
| Cc1nc(N2CCC(C)CC2)c2oc3ccccc3c2n1 | inconclusive [activator, single point] | – |
| O=C(CN1CCOCC1)N/N=C/c1ccc(-c2ccc(Br)cc2)o1 | inconclusive [activator, single point] | – |
| CCCCNC(C(=O)Nc1ccc(Cl)c([N+](=O)[O-])c1)c1ccccc1 (stereo unspecified) | inconclusive [activator, partial curve, poor fit] | – |
| CCCc1sc(N2CCCC(C(N)=O)C2)nc1-c1ccccc1 (stereo unspecified) | – | inactive: 4.46% |
| Cc1cccc2c3c([nH]c12)CCNC3 | – | inactive: 0.378% |
| CCOc1ccc(CSC(=N)N)cc1Cl | active: 18.4 µM | – |
| CCSc1cnc(-c2ccccc2)n1CC | inconclusive [activator, full curve, poor fit] | – |
| CCN(CCNC(=O)CC1Oc2ccccc2NC1=O)c1ccccc1 (stereo unspecified) | – | inactive: -3.27% |
| COc1cc(NC2c3ccccc3C(=O)N2Cc2ccccc2)cc(OC)c1OC (stereo unspecified) | – | inactive: -3.77% |
| CN(Cc1ccccc1)C(=O)c1ccc(Cl)c([N+](=O)[O-])c1 | inconclusive [activator, partial curve, poor fit] | – |

| SMILES | Potency | activity, positive = re-replication |
| --- | --- | --- |
| COc1cc(NC(=O)CSc2nnc3ccccn23)cc(OC)c1 | – | inactive: 1.7% |
| CC1(C)Cc2c(c(N3CCOCC3)nc3sc4c(NCc5ccco5)nnnc4c23)CS1 | – | inactive: -25% |
| CC(C)(C)c1cc(C(=O)NNc2cccc(Cl)c2)n(Cc2ccccc2)n1 | inconclusive [activator, single point] | – |
| O=C(NCCC1CCCCN1S(=O)(=O)c1cccs1)C(=O)NCc1ccccc1 (stereo unspecified) | inconclusive [activator, single point] | – |
| O=C(CCCCCn1c(=O)[nH]c2ccccc2c1=O)N1CCN(Cc2ccc3c(c2)OCO3)CC1 | – | inactive: 17.6% |
| Cc1cc(C)nc(N2CCCC(C(=O)Nc3cccc(Cl)c3)C2)n1 (stereo unspecified) | inconclusive [activator, single point] | – |
| Cc1[nH]c2ccccc2c1C(=O)/C=C/c1ccccc1 | inconclusive [activator, single point] | – |
| O=C(CSc1n[nH]c(-c2ccccc2)n1)Nc1ccc(Br)cn1 | inconclusive [activator, partial curve, poor fit] | – |
| CCOC(=O)c1ccc(Oc2cc(C)nc(SC)n2)cc1 | active: 1.84 µM | – |
| Cc1cc(N2CCOCC2)nc2ccc(NC(=S)NC(C)C)cc12 | active: 23.1 µM | – |
| CCCC(CCC)C(=O)Nc1cccc(-c2cn3c(n2)SCC3)c1 | – | inactive: -5% |
| COc1cccc(NC(=S)NCc2cccnc2)c1 | inconclusive [activator, single point] | – |
| CC(=O)c1ccc(N2C(=O)C3C(C2=O)C(C(=O)c2ccc(Cl)cc2)N2CCCC32)cc1 (stereo unspecified) | active: 11.6 µM | – |
| Cc1cc(C)c(NC(=O)C(C)c2cccc(C(=O)c3ccccc3)c2)c(C)c1 (stereo unspecified) | inconclusive [activator, single point] | – |
| O=C(Nc1ccc(F)cc1)Nc1sccc1-c1nc2ccccc2s1 | inconclusive [activator, full curve, poor fit] | – |
| COc1ccc(NC(=O)CSCC(=O)Nc2ccccc2N2CCCCC2)cc1 | inconclusive [activator, single point] | – |
| Cc1nc(NC(=O)c2ccccc2)sc1-c1csc(NCCc2ccccc2)n1 | inconclusive [activator, single point] | – |
| COc1ccccc1N1CCN(C(=O)c2ccc(S(=O)(=O)N3CCCCCC3)cc2)CC1 | inconclusive [activator, partial curve, poor fit] | – |
| O=C(Nc1ccc([N+](=O)[O-])cc1)Nc1ccc(OC(F)F)c(Cl)c1 | inconclusive [activator, full curve] | – |
| COc1cc2c(cc1OC)CN(C(=O)CCNS(=O)(=O)c1ccccc1F)CC2 | – | inactive: 6.31% |
| CCOc1ccc(S(=O)(=O)Nc2ccc(S(=O)(=O)Nc3cc(OC)ccc3OC)cc2)cc1 | inconclusive [activator, partial curve] | – |
| COCCSc1nnc(NC(=O)c2ccc3c(c2)OCO3)s1 | inconclusive [activator, partial curve, poor fit] | – |
| CCc1ccc(-c2cc(C(=O)N/N=C/c3ccco3)[nH]n2)cc1 | inconclusive [activator, single point] | – |
| Cn1c(=O)n(C)c2cc(C(=O)Nc3ccc(Br)cc3)ccc21 | inconclusive [activator, partial curve] | – |

| SMILES | Potency | activity, positive = re-replication |
| --- | --- | --- |
| CCOc1ccc2[nH]cc(S(=O)(=O)c3ccc(Cl)cc3)c(=O)c2c1 | – | inactive: 6.27% |
| O=c1c2cc(Cl)ccc2nc(-c2ccccc2Cl)n1O | inconclusive [activator, partial curve, poor fit] | – |
| Cc1n[nH]c(=S)n(NC(=O)CC(=O)Nn2c(=S)[nH]nc(C)c2=O)c1=O | – | inactive: 28.4% |
| O=C(Nc1c2c(nn1-c1ccc([N+](=O)[O-])cc1)CS(=O)(=O)C2)c1ccco1 | – | inactive: 1.05% |
| OCC1(Cc2ccc(Cl)cc2)CCN(Cc2ccccc2F)CC1 | – | inactive: 12.1% |
| COc1ccc(-c2cc(C(=O)Nc3c(C)n(C)n(-c4ccccc4)c3=O)no2)cc1OC | – | inactive: -1.35% |
| COc1ccc(C(=O)c2sc3nc(-c4ccc(OC)cc4)ccc3c2N)cc1 | inconclusive [activator, full curve, poor fit] | – |
| COc1cc(NC(=O)c2csc(N)n2)cc(C(=O)Nc2cccc(C(F)(F)F)c2)c1 | inconclusive [activator, partial curve] | – |
| O=C(c1noc2c1CCCCC2)N1CCN(C(c2ccccc2)c2ccccc2)CC1 | – | inactive: 2.6% |
| C/C(=N/NC(=O)CNC(=O)c1cccnc1)c1ccc(Cl)c(Cl)c1 | – | inactive: -0.826% |
| COc1cc([N+](=O)[O-])ccc1NC(=S)Nn1cnnc1 | inconclusive [activator, single point] | – |
| C=CCn1c2ccccc2c2nnc(SCC(=O)OCN3C(=O)c4ccccc4C3=O)nc21 | inconclusive [activator, partial curve, poor fit] | – |
| CCC(C)[C@H](NC(=O)c1cc2cc(Cl)ccc2n1C)C(=O)N1CCC[C@H]1C(=O)O (stereo partly specified) | – | inactive: 9.52% |
| Cc1sc(NC(=O)c2cc(-c3ccc(Cl)cc3)nc3ccccc23)c(C(N)=O)c1C | active: 18.4 µM | – |
| CCCCNC(=O)c1cc2c(-c3ccc(Cl)cc3)nn(C)c2s1 | inconclusive [activator, single point] | – |
| CSCCC(NC(=O)COc1ccccc1)C(=O)N1CCN(c2ccccc2Cl)CC1 (stereo unspecified) | inconclusive [activator, partial curve, poor fit] | – |
| O=c1[nH]c2ccccc2n1CCC1CCCCC1 | inconclusive [activator, single point] | – |
| CC(=O)Nc1c(C)ccc(CNC(=O)COc2cc(C)ccc2C)c1C | inconclusive [activator, partial curve, poor fit] | – |
| COc1cccc(NC(=O)c2ccc(S(=O)(=O)NCc3cccnc3)cc2)c1 | – | inactive: 0.943% |
| CCCn1c(CN2CCN(C(=O)OCC)CC2)nc2cc(NC(=O)CC)ccc21 | active: 16.4 µM | – |
| CCOC(=O)c1cc(C#N)c(N2CCCNCC2)nc1C(F)(F)F | inconclusive [activator, partial curve, poor fit] | – |
| CN(CC(=O)Nc1ccccc1Br)C(=O)c1ccccc1OCc1ccccc1Cl | inconclusive [activator, single point] | – |
| O=C(Nc1ccccc1)C1=C(c2ccccc2)S(=O)(=O)CCS1(=O)=O | inconclusive [activator, full curve, poor fit] | – |
